Where “and” joins values, the source holds several entries; their conditions need not be identical. Equal values may be shown once. The source gives many values for each of these; only a part stands here.
Assay: xn = mol fraction of the nth substance listed

[Cl-].[Na+] + O
Settings | viscosity
293.15 K, 100 kPa, x1 = 0.0152 | 1.076 mPa·s
293.15 K, 101.3 kPa, x1 = 0.04 | 1.254 mPa·s
293.15 K, 101.3 kPa, x1 = 0.055 | 1.362 mPa·s
293.15 K, 101.3 kPa, x1 = 0.072 | 1.418 mPa·s
298.15 K, 100 kPa, x1 = 0.003569 | 0.912 mPa·s
298.15 K, 100 kPa, x1 = 0.003647 | 0.911 mPa·s
298.15 K, 100 kPa, x1 = 0.00612 | 1.033 mPa·s
298.15 K, 100 kPa, x1 = 0.00887 | 0.94 mPa·s
298.15 K, 100 kPa, x1 = 0.01261 | 0.958 mPa·s
298.15 K, 100 kPa, x1 = 0.01772 | 0.984 mPa·s
298.15 K, 100 kPa, x1 = 0.01818 | 0.989 mPa·s
298.15 K, 101 kPa, x1 = 0.0009 | 0.8978 mPa·s
298.15 K, 101 kPa, x1 = 0.001995 | 0.9 mPa·s and 0.9002 mPa·s
298.15 K, 101 kPa, x1 = 0.003 | 0.9276 mPa·s
298.15 K, 101 kPa, x1 = 0.01014 | 0.9363 mPa·s and 0.9362 mPa·s
298.15 K, 101 kPa, x1 = 0.01515 | 0.9607 mPa·s
298.15 K, 101 kPa, x1 = 0.04333 | 1.134 mPa·s
298.15 K, 101 kPa, x1 = 0.05279 | 1.21 mPa·s
298.15 K, 101 kPa, x1 = 0.07012 | 1.385 mPa·s
298.15 K, 101 kPa, x1 = 0.0863 | 1.574 mPa·s and 1.575 mPa·s
298.15 K, 101.33 kPa, x1 = 0.09998 | 1.577 mPa·s
303.15 K, 100 kPa, x1 = 0.003569 | 0.824 mPa·s
303.15 K, 100 kPa, x1 = 0.003647 | 0.823 mPa·s
303.15 K, 100 kPa, x1 = 0.008855 | 0.844 mPa·s
303.15 K, 100 kPa, x1 = 0.00887 | 0.851 mPa·s
303.15 K, 100 kPa, x1 = 0.01261 | 0.863 mPa·s
303.15 K, 100 kPa, x1 = 0.01772 | 0.889 mPa·s
303.15 K, 100 kPa, x1 = 0.01818 | 0.894 mPa·s
303.15 K, 101 kPa, x1 = 0.0002314 | 0.7989 mPa·s
303.15 K, 101 kPa, x1 = 0.0002878 | 0.7992 mPa·s and 0.7991 mPa·s
303.15 K, 101 kPa, x1 = 0.000365 | 0.7995 mPa·s
303.15 K, 101 kPa, x1 = 0.001112 | 0.8025 mPa·s and 0.8027 mPa·s
303.15 K, 101 kPa, x1 = 0.001995 | 0.8066 mPa·s and 0.8067 mPa·s
303.15 K, 101 kPa, x1 = 0.004239 | 0.8161 mPa·s and 0.816 mPa·s
303.15 K, 101 kPa, x1 = 0.01014 | 0.8411 mPa·s and 0.841 mPa·s
303.15 K, 101 kPa, x1 = 0.05279 | 1.091 mPa·s and 1.092 mPa·s
303.15 K, 101 kPa, x1 = 0.0863 | 1.413 mPa·s and 1.414 mPa·s
303.15 K, 101 kPa, x1 = 0.09494 | 1.522 mPa·s and 1.523 mPa·s
307.3 K, 100 kPa, x1 = 0.09185 | 1.359 mPa·s
307.61 K, 100 kPa, x1 = 0.09185 | 1.35 mPa·s
307.62 K, 100 kPa, x1 = 0.09185 | 1.35 mPa·s
308.15 K, 100 kPa, x1 = 0.003569 | 0.746 mPa·s
308.15 K, 100 kPa, x1 = 0.003647 | 0.748 mPa·s
308.15 K, 100 kPa, x1 = 0.008855 | 0.766 mPa·s
308.15 K, 100 kPa, x1 = 0.00887 | 0.771 mPa·s
308.15 K, 100 kPa, x1 = 0.01261 | 0.783 mPa·s
308.15 K, 100 kPa, x1 = 0.01772 | 0.805 mPa·s
308.15 K, 100 kPa, x1 = 0.01818 | 0.815 mPa·s
308.15 K, 101 kPa, x1 = 0.0009 | 0.7251 mPa·s
308.15 K, 101 kPa, x1 = 0.005 | 0.7433 mPa·s
308.15 K, 101.3 kPa, x1 = 0.00112 | 0.7238 mPa·s
308.15 K, 101.3 kPa, x1 = 0.002247 | 0.7353 mPa·s
308.15 K, 101.3 kPa, x1 = 0.004484 | 0.7441 mPa·s
308.15 K, 101.3 kPa, x1 = 0.008927 | 0.7642 mPa·s
308.15 K, 101.3 kPa, x1 = 0.0177 | 0.799 mPa·s
308.15 K, 101.33 kPa, x1 = 0.000905 | 0.7247 mPa·s
308.15 K, 101.33 kPa, x1 = 0.006344 | 0.7542 mPa·s
308.15 K, 101.33 kPa, x1 = 0.008159 | 0.7646 mPa·s
310.15 K, 101 kPa, x1 = 9e-05 | 0.6988 mPa·s
310.15 K, 101 kPa, x1 = 0.000182 | 0.7 mPa·s
310.15 K, 101 kPa, x1 = 0.000911 | 0.7039 mPa·s
310.15 K, 101 kPa, x1 = 0.00178 | 0.7083 mPa·s

— the CheMixHub viscosity set
